{"source": "PubChem BioAssay AID1345083", "about": "(National Center for Advancing Translational Sciences (NCATS), 2018)", "note": "In all, about 94,000 compounds went through this assay and about 6,200 (6.6%) were called active. Inconclusive results, whose numbers are uncertain, are shown with a selection of clear calls. The call rests on the fitted dose curve; in most records, active means well fitted inhibition curve with a large enough effect; inconclusive means small, poorly fitted or top-dose-only effect; inactive means flat fitted curve, though single readings scatter. Potencies beside an inconclusive call are fits to weak or partial responses and may not hold up. Potency means the concentration at half of the fitted maximal effect; tags describe the fitted curve by direction and shape.", "data": [{"assay": "Cytotoxic Profiling in HEK 293 Cell Line of Diverse Libraries Using Quantitative High-Throughput Screening; further: nearly all actives have a fitted effect of over 60% in size", "conditions": "HEK 293 viability, ATP luminescence (CellTiter-Glo), 48-72 h; series mostly up to 115 µM", "in_short": "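qHTS cytotoxicity; HEK 293, 250 cells/well; compound pinned; 48 or 72 hr, 37 degree Celsius, 5% CO2, 95% humidity; CellTiter-Glo, 10 min RT; luminescence (ATP).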", "values": [{"smiles": "COc1cc2c(cc1Oc1cccc(N(C)C)c1)NC(=O)C21CCN(C(=O)C(C)C)CC1", "Potency": "inconclusive: 89.1 µM [inhibitor, partial curve]"}, {"smiles": "COc1ccc(NC(=O)OC[C@H]2C[C@@H]3CCN2C[C@@H]3c2cc(C3CCCC3)nc(-c3ccncc3)n2)cc1", "Potency": "active: 14.1 µM"}, {"smiles": "Cn1nc(-c2cccs2)cc1[C@H]1CN2CC[C@H]1C[C@@H]2CNCc1ccccn1", "Potency": "inconclusive: 56.2 µM [inhibitor, full curve, poor fit]"}, {"smiles": "Cn1nc(-c2ccc3ccccc3c2)cc1[C@H]1CN2CC[C@H]1C[C@@H]2CNS(=O)(=O)c1cccs1", "Potency": "inconclusive: 22.4 µM [inhibitor, full curve, poor fit]"}, {"smiles": "CN1CCN(C(=O)Cc2c[nH]c3ncc(-c4ccc(Cl)cc4)cc23)CC1", "Potency": "active: 100 µM"}, {"smiles": "CC(Cc1ccccn1)N(C)Cc1ccc(S(C)(=O)=O)cc1", "note": "(stereo not drawn)", "Potency": "inconclusive: 89.1 µM [inhibitor, single point]"}, {"smiles": "COc1ccccc1-c1cc([C@H]2CN3CC[C@H]2C[C@@H]3CNCc2cccc(C#N)c2)n(C)n1", "Potency": "inconclusive: 126 µM [inhibitor, single point]"}, {"smiles": "CC[C@H]1CN2CC[C@H]1C[C@@H]2CNC(=O)Nc1ccc(C(C)(C)C)cc1", "Potency": "active: 70.8 µM"}, {"smiles": "OCC1CN(c2ncccn2)CC12CCNCC2", "note": "(stereo not drawn)", "Potency": "inactive"}, {"smiles": "O=C(c1cccc(Cl)c1)N1CCC(C(=O)O)(c2ccccc2)CC1", "Potency": "inactive"}, {"smiles": "COc1ccccc1NC(=O)N1C[C@@H]2C[C@H](C1)c1c(-c3cccs3)ccc(=O)n1C2", "Potency": "inconclusive: 17.8 µM [inhibitor, full curve, poor fit]"}, {"smiles": "Cc1ncsc1CN1CC(CO)C2(CCNCC2)C1", "note": "(stereo not drawn)", "Potency": "inactive"}, {"smiles": "COc1ccc2c(c1)C1(CCN(S(=O)(=O)c3ccc(C)cc3)C1)C(=O)N2C", "note": "(stereo not drawn)", "Potency": "inconclusive: 39.8 µM [inhibitor, partial curve, poor fit]"}, {"smiles": "CC(C)CN1CCN(c2ccc(Cl)nn2)C(=O)C1", "Potency": "inactive"}, {"smiles": "CC(C)Oc1ccc(C(=O)N2CCC3(CC2)c2nccn2-c2ccccc2CN3C)cc1", "Potency": "inconclusive: 89.1 µM [inhibitor, single point]"}, {"smiles": "CC(=O)c1ccc(NC(=O)NC[C@H]2C[C@@H]3CCN2C[C@@H]3c2cc(-c3ccco3)nc(C)n2)cc1", "Potency": "active: 79.4 µM"}, {"smiles": "CC(C)NC(=O)[C@H]1CN2CCC1C[C@@H]2Cn1cc(CN(C)Cc2ccccc2)nn1", "note": "(stereo partly drawn)", "Potency": "inactive"}, {"smiles": "COc1ccc(-c2cc([C@H]3CN4CC[C@H]3C[C@@H]4COC(=O)NC(C)C)nc(C)n2)cc1", "Potency": "inconclusive: 100 µM [inhibitor, partial curve, poor fit]"}]}]}
